Reference: paper PMC4336329 (PLoS ONE, 2015)
Out of some 310,000 compounds screened, about 2,200 (0.71%) showed an effect of 50% or more. Effects have a minus sign here. Some of the results follow.

target: human ether-à-go-go-related gene (hERG) potassium channel (human, UniProt Q12809); test: primary screen, population patch clamp on CHO cells stably expressing hERG
Sequence (Q12809 whole entry, looked up): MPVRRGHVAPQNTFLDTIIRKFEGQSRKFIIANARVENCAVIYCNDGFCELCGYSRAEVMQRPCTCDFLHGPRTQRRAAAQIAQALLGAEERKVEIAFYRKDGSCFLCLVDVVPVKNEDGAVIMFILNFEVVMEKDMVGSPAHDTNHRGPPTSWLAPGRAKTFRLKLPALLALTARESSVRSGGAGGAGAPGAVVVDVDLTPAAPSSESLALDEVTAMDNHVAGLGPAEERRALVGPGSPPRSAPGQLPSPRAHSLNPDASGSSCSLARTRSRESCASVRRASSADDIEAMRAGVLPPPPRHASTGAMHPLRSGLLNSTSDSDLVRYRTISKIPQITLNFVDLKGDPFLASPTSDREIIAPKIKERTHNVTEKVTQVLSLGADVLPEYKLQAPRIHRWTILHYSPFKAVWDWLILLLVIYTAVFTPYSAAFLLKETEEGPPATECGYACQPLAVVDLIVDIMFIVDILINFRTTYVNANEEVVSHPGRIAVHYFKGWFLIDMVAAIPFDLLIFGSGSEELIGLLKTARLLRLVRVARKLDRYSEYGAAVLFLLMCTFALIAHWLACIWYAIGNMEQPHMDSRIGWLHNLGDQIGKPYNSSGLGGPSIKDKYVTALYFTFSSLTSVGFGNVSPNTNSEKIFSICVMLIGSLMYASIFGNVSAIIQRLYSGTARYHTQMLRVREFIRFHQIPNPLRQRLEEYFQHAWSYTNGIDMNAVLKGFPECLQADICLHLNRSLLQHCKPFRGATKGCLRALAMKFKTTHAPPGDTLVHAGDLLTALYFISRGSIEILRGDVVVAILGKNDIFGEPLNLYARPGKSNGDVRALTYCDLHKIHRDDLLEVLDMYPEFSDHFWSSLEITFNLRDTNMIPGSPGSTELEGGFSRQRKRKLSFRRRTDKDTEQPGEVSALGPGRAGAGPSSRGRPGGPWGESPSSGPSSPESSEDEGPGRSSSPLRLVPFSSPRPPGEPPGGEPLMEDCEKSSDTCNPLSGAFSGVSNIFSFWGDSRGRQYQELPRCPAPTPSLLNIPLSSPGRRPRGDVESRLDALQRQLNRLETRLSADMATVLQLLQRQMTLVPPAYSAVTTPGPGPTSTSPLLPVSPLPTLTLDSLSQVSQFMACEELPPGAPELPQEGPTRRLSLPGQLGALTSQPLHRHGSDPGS

Which “hERG current change (%, negative = inhibition) at 1uM” value does the source give for `Cc1cccc2cc(C#N)c(SCC(=O)NNC(=O)Cc3ccccc3)nc12` here?
The value was -6.63%.

With `CC(=O)Nc1ccc(NS(=O)(=O)c2ccc3c(c2)oc(=O)n3C)cc1` as the compound, how does the “hERG current change (%, negative = inhibition) at 1uM” value read?
Its value is 8.83%.

Which “hERG current change (%, negative = inhibition) at 1uM” value does the source give for `COCCOC(=O)c1c(NC(=O)CN2CCOCC2)sc(C(N)=O)c1C` here?
The value was 9.13%.

With `Cc1cc(C(=O)N2CCCC(Nc3ccc(C(C)C)cc3)C2)nn1C` (centres unmarked) as the compound, how does the “hERG current change (%, negative = inhibition) at 1uM” value read?
Its value is 7.33%.

Which “hERG current change (%, negative = inhibition) at 1uM” value does the source give for `O=[N+]([O-])/C(N=Nc1ccccc1)=N\Nc1ccccc1` here?
Its value is 15%.

With `CCN(CC(=O)Nc1c(F)cccc1F)C(=O)C1CCN(C(=O)c2ccc(F)cc2)CC1` as the compound, how does the “hERG current change (%, negative = inhibition) at 1uM” value read?
The value was 8.86%.

For `Cc1ccc(-n2c(O)c(/C=N/NC(=O)c3ccncc3)c(=O)[nH]c2=O)cc1`, which “hERG current change (%, negative = inhibition) at 1uM” value is on record?
The value was 2.14%.

Which “hERG current change (%, negative = inhibition) at 1uM” value does the source give for `COc1ccc(CCN2CC(C(=O)O)CC2=O)cc1` (centres unmarked) here?
The value was 6.07%.

For `CCN(CC)c1ccc(NC(=O)COc2ccccc2C#N)cc1S(=O)(=O)Nc1ccc(OC)cc1`, which “hERG current change (%, negative = inhibition) at 1uM” value is on record?
The value was 14.6%.

`CC(=O)N1CCN(c2ccc(NC(=O)c3ccc([N+](=O)[O-])o3)cc2Cl)CC1` was tested. Which “hERG current change (%, negative = inhibition) at 1uM” value did it give?
Its value is 2.62%.

`Cl.Fc1ccccc1COc1ccc(Br)cc1CNCC1CCCO1` (centres unmarked) was tested. Which “hERG current change (%, negative = inhibition) at 1uM” value did it give?
The value was -8.9%.

How did the “hERG current change (%, negative = inhibition) at 1uM” value turn out when `CC(=O)Nc1ncc(Cc2ccc(Cl)cc2Cl)s1` was run?
Its value is 8.67%.

Which “hERG current change (%, negative = inhibition) at 1uM” value does the source give for `CC(=O)c1ccc(NC(=O)CSc2ccc3nnc(-c4cccnc4)n3n2)cc1` here?
The value was 8.3%.

Which “hERG current change (%, negative = inhibition) at 1uM” value does the source give for `Cc1[nH]c2ccccc2c1CCNCc1ccco1.Cl` here?
The value was 15.5%.

Which “hERG current change (%, negative = inhibition) at 1uM” value does the source give for `CCn1c(COc2ccccc2C)nnc1SCC(=O)N1CCCCC1` here?
The value was 3.26%.

Which “hERG current change (%, negative = inhibition) at 1uM” value does the source give for `Cc1[nH]c2ccccc2c1/C=C/c1nc2ccccc2c(=O)n1-c1cccc([N+](=O)[O-])c1` here?
The value was 8.08%.

With `COc1cc(C2C(C(=O)OC(C)C)=C(C)Nc3ncnn32)cc(OC)c1OC` (centres unmarked) as the compound, how does the “hERG current change (%, negative = inhibition) at 1uM” value read?
Its value is -3.58%.

Which “hERG current change (%, negative = inhibition) at 1uM” value does the source give for `COc1ccc(Cl)cc1C(=O)NNC(=S)NC1CCCC1` here?
Its value is -1.02%.

For `CNc1ccc(/C=C/C(=O)c2ccc(C)cc2)cc1[N+](=O)[O-]`, which “hERG current change (%, negative = inhibition) at 1uM” value is on record?
Its value is 5.9%.

For `CCn1c(=O)cc(SCC(=O)N2CCN(C)CC2)c2ccccc21`, which “hERG current change (%, negative = inhibition) at 1uM” value is on record?
Its value is 10.4%.

For `Brc1ccc(-c2cnc3n2CCCC3)cc1`, which “hERG current change (%, negative = inhibition) at 1uM” value is on record?
Its value is -11.2%.

How did the “hERG current change (%, negative = inhibition) at 1uM” value turn out when `O=[N+]([O-])c1cccc(-n2cccc2/C=N/Nc2nc(N3CCCCC3)nc(N3CCCCC3)n2)c1` was run?
Its value is 14.4%.

`CC1CN(c2oc(-c3cccs3)nc2C#N)CC(C)O1` (centres unmarked) was tested. Which “hERG current change (%, negative = inhibition) at 1uM” value did it give?
Its value is 4.32%.

How did the “hERG current change (%, negative = inhibition) at 1uM” value turn out when `CCOC(=O)C1CCN(C(=O)Cn2nc(C)n3nc(-c4ccc(CC)cc4)cc3c2=O)CC1` was run?
Its value is 4.81%.

How did the “hERG current change (%, negative = inhibition) at 1uM” value turn out when `CC1CCN(C(=O)C2CCN(S(=O)(=O)c3ccc4c(c3)CC(C)N4C(=O)C3CC3)CC2)CC1` (centres unmarked) was run?
The value was 7.03%.

How did the “hERG current change (%, negative = inhibition) at 1uM” value turn out when `O=C(O)CC(NC(=O)C1CCCCC1)c1ccc(OC2CCCC2)cc1` (centres unmarked) was run?
The value was 7.89%.

For `CCOC(=O)c1c(C)c(C(=O)NCc2ccco2)c(C)n1Cc1ccccc1`, which “hERG current change (%, negative = inhibition) at 1uM” value is on record?
Its value is 3.4%.

`O=C1CN(C(=O)COC(=O)CNS(=O)(=O)c2ccccc2)c2ccccc2N1` was tested. Which “hERG current change (%, negative = inhibition) at 1uM” value did it give?
Its value is 20.4%.

`O=C(O)CCn1c(SCc2cc(=O)n3ccccc3n2)nc2ccsc2c1=O` was tested. Which “hERG current change (%, negative = inhibition) at 1uM” value did it give?
Its value is 7.36%.

With `COc1cc(C(=O)Nc2ccc3c(c2)ncn3C(C)(C)C)cc(OC)c1OC` as the compound, how does the “hERG current change (%, negative = inhibition) at 1uM” value read?
Its value is 10.3%.

Which “hERG current change (%, negative = inhibition) at 1uM” value does the source give for `Cc1cccc(-n2ncc3c(N4CCCc5ccccc54)ncnc32)c1` here?
The value was -7.58%.

With `O=C(/C(N=Nc1cccc(C(F)(F)F)c1)=C(/O)c1cccs1)C(F)(F)F` as the compound, how does the “hERG current change (%, negative = inhibition) at 1uM” value read?
Its value is 4.56%.

With `CCOc1ccc2[nH]c(=O)c(C(c3nnnn3CC3CCCO3)N3CCc4ccccc4C3)cc2c1` (centres unmarked) as the compound, how does the “hERG current change (%, negative = inhibition) at 1uM” value read?
The value was 8.33%.

For `Fc1ccc(Cn2nnnc2C(c2ccc(F)cc2)N2CC=C(c3ccc(F)cc3)CC2)cc1` (centres unmarked), which “hERG current change (%, negative = inhibition) at 1uM” value is on record?
Its value is 5.85%.

`CC(C)(C)c1ccc(C(=O)NCC(=O)NCc2ccccn2)cc1` was tested. Which “hERG current change (%, negative = inhibition) at 1uM” value did it give?
Its value is 5.51%.

`COc1ccc(-c2csc3nc(C)nc(N4CCCCC4)c23)cc1OC` was tested. Which “hERG current change (%, negative = inhibition) at 1uM” value did it give?
The value was 5.05%.

Which “hERG current change (%, negative = inhibition) at 1uM” value does the source give for `COc1ccc(N2CCN(CC(=O)Nc3ccc(C)c(C)c3)CC2)cc1` here?
Its value is 3.67%.

Which “hERG current change (%, negative = inhibition) at 1uM” value does the source give for `CCOC(=O)c1cc(CC)sc1NC(=O)CCC(=O)O` here?
Its value is 18.4%.

For `CCCOCC(O)COc1ccccc1C(=O)N1CCOCC1` (centres unmarked), which “hERG current change (%, negative = inhibition) at 1uM” value is on record?
The value was 8.61%.

How did the “hERG current change (%, negative = inhibition) at 1uM” value turn out when `CCCCN(C)S(=O)(=O)c1ccc(C(=O)Nc2nnc(-c3ccco3)o2)cc1` was run?
Its value is 10.8%.

Which “hERG current change (%, negative = inhibition) at 1uM” value does the source give for `COC(=O)CNC(=O)COC(=O)/C=C/c1ccccc1[N+](=O)[O-]` here?
Its value is 2.59%.

Which “hERG current change (%, negative = inhibition) at 1uM” value does the source give for `NNC(=O)c1ccc(COCC(F)(F)F)cc1` here?
The value was 14.2%.

Which “hERG current change (%, negative = inhibition) at 1uM” value does the source give for `CCn1c(O)c(C=NCCN2CCOCC2)sc1=S` here?
Its value is -1.72%.

Which “hERG current change (%, negative = inhibition) at 1uM” value does the source give for `CC/C(=N\NC(=S)Nc1ccc(OC)cc1)c1ccc(OC(F)F)cc1` here?
Its value is 7.12%.

For `COc1ccc(NC(=S)N2CCN(C)CC2)cc1`, which “hERG current change (%, negative = inhibition) at 1uM” value is on record?
The value was 9.7%.

How did the “hERG current change (%, negative = inhibition) at 1uM” value turn out when `CC(=O)Oc1c(Cl)cc(Cl)cc1/C=C/c1ccc2ccccc2n1` was run?
The value was -0.328%.

How did the “hERG current change (%, negative = inhibition) at 1uM” value turn out when `O=C(NNC(=O)NC1CCCCC1)NC1CCCCC1` was run?
Its value is 9.73%.

`S=C(NCc1ccccc1)NCc1ccccc1` was tested. Which “hERG current change (%, negative = inhibition) at 1uM” value did it give?
The value was 6.82%.

Which “hERG current change (%, negative = inhibition) at 1uM” value does the source give for `CCN(Cc1cc(=O)n2ccsc2n1)Cc1nc2ccccc2c(=O)[nH]1` here?
The value was 8.93%.

For `CC(C(=O)N1CCN(C2c3ccccc3-c3ccccc32)CC1)N1C(=O)c2ccccc2C1=O` (centres unmarked), which “hERG current change (%, negative = inhibition) at 1uM” value is on record?
Its value is 1.9%.

How did the “hERG current change (%, negative = inhibition) at 1uM” value turn out when `CC(OC(=O)CCC1CCCC1)C(=O)Nc1ccccc1[N+](=O)[O-]` (centres unmarked) was run?
The value was 4.71%.

`Cc1c(C#N)c(O)[nH]c(=O)c1N=Nc1ccc(S(N)(=O)=O)cc1` was tested. Which “hERG current change (%, negative = inhibition) at 1uM” value did it give?
The value was 9.28%.

How did the “hERG current change (%, negative = inhibition) at 1uM” value turn out when `Nn1c(=O)c2ccccc2n2c(SCc3ccc(C(F)(F)F)cc3)nnc12` was run?
The value was 2.65%.

For `NS(=O)(=O)c1ccc(NC(=S)Nc2ccc(Br)c(Cl)c2)cc1`, which “hERG current change (%, negative = inhibition) at 1uM” value is on record?
The value was 16.4%.

With `Cc1ccc(S(=O)(=O)CC(=O)NCc2ccccc2)cc1` as the compound, how does the “hERG current change (%, negative = inhibition) at 1uM” value read?
The value was 0.616%.

For `CC(C)c1ccc2oc(=O)cc(CN3CCCCC3)c2c1`, which “hERG current change (%, negative = inhibition) at 1uM” value is on record?
Its value is 1.6%.
